Data reported in the supplement of paper PMC7125110.
± gives the standard error. Variants at the floor of the assay are shown more often than the library holds them.

B1: glmS ribozyme (parent)
chain: AUAAAAGCGCCAGAACUACAGAAAUGUAGUUGACGAGGAGGAGGUUUAUCGAAUUUUCGGCGGAUGCCUCCAAA

Tests used:
Conditions in all cases: with glucosamine-6-phosphate
[1] = variants of: B1; experiment: self-cleavage kobs at 40 uM GlcN6P; higher = faster cleavage; RNA array
In short: (§1)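 Barcoded ribozyme variants were transcribed in situ on sequenced MiSeq chips by E. coli RNA polymerase. At 37 °C, a hybridised Cy3 probe tracked them while glucosamine-6-phosphate (40 μM to 10 mM) in HEPES/KCl/Mg(OAc)2 buffer flowed in and tiles were imaged over ~14 h. Per-tile medians of signals normalised to baseline and to non-cleaving reference variants were fit to one- or two-exponential decays, giving kobs. kcat and KM came from weighted Michaelis–Menten fits across concentrations.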

[2] = variants of: B1; experiment: self-cleavage kobs at 10000 uM GlcN6P; higher = faster cleavage; RNA array
In short: as §1

[3] = variants of: B1; experiment: self-cleavage kobs at 640 uM GlcN6P; higher = faster cleavage; RNA array
In short: as §1

[4] = variants of: B1; experiment: self-cleavage kobs at 160 uM GlcN6P; higher = faster cleavage; RNA array
In short: as §1

[5] = variants of: B1; experiment: self-cleavage kobs at 2500 uM GlcN6P; higher = faster cleavage; RNA array
In short: as §1

Row | Variant | self-cleavage kobs at 40 uM GlcN6P [1] | self-cleavage kobs at 10000 uM GlcN6P [2] | self-cleavage kobs at 640 uM GlcN6P [3] | self-cleavage kobs at 160 uM GlcN6P [4] | self-cleavage kobs at 2500 uM GlcN6P [5]
1 | C61U C68A | < 1e-05 s⁻¹ | < 1e-05 s⁻¹ | – | – | –
2 | C61U C70A | < 1e-05 s⁻¹ | – | – | – | –
3 | G62A A64C | < 1e-05 s⁻¹ | – | < 1e-05 s⁻¹ | < 1e-05 s⁻¹ | –
4 | G62A U69A | < 1e-05 s⁻¹ | – | – | – | –
5 | G62C C71A | < 1e-05 s⁻¹ | – | < 1e-05 s⁻¹ | < 1e-05 s⁻¹ | < 1e-05 s⁻¹
6 | G62C G63A | < 1e-05 s⁻¹ | – | – | – | –
7 | G62C G66C | < 1e-05 s⁻¹ | – | – | < 1e-05 s⁻¹ | < 1e-05 s⁻¹
8 | G62U C67A | < 1e-05 s⁻¹ | – | – | – | –
9 | G62U C71A | < 1e-05 s⁻¹ | – | – | – | < 1e-05 s⁻¹
10 | G62U G66U | < 1e-05 s⁻¹ | < 1e-05 s⁻¹ | – | < 1e-05 s⁻¹ | –
11 | G63A C67A | < 1e-05 s⁻¹ | < 1e-05 s⁻¹ | < 1e-05 s⁻¹ | – | –
12 | G63C A64G | < 1e-05 s⁻¹ | – | – | < 1e-05 s⁻¹ | < 1e-05 s⁻¹
13 | G63U U65G | < 1e-05 s⁻¹ | < 1e-05 s⁻¹ | < 1e-05 s⁻¹ | < 1e-05 s⁻¹ | < 1e-05 s⁻¹
14 | A64G | 0.000914 ± 1.8e-05 s⁻¹ | 0.0412 ± 0.0018 s⁻¹ | 0.0109 ± 0.0004 s⁻¹ | 0.0031 ± 0.0002 s⁻¹ | 0.0249 ± 0.0011 s⁻¹
15 | A64U C71G | < 1e-05 s⁻¹ | – | – | – | –
16 | U65A C67U U69G | < 1e-05 s⁻¹ | – | – | – | –
17 | U65G C68U | 5.31e-05 ± 8.4e-06 s⁻¹ | 0.00155 ± 0.00018 s⁻¹ | 0.000304 ± 4.1e-05 s⁻¹ | 0.000159 ± 3.2e-05 s⁻¹ | 0.000758 ± 0.00013 s⁻¹
18 | C67G U69A | < 1e-05 s⁻¹ | – | – | < 1e-05 s⁻¹ | –
19 | C67U C70A | < 1e-05 s⁻¹ | – | – | – | –
20 | C67U C71U | 6.24e-05 ± 6.8e-06 s⁻¹ | – | – | – | –
21 | C68A C70G | < 1e-05 s⁻¹ | – | – | – | –
22 | U69C C70A | < 1e-05 s⁻¹ | – | – | – | –
23 | U69C C70U | 5.3e-05 ± 1.3e-05 s⁻¹ | 0.000743 ± 0.00018 s⁻¹ | 0.000254 ± 3.7e-05 s⁻¹ | 0.000108 ± 2.4e-05 s⁻¹ | 0.000524 ± 7.1e-05 s⁻¹
24 | C71G | 0.000157 ± 1.8e-05 s⁻¹ | 0.00313 ± 0.00019 s⁻¹ | 0.000926 ± 4.6e-05 s⁻¹ | 0.00041 ± 3.6e-05 s⁻¹ | 0.00218 ± 0.00013 s⁻¹
